In the supplement of paper PMC12632987:
The full ranking holds about 1,800 sequences; the median of “median log2 fold change of GCK-ALFA target abundance (FLAG IP / Myc IP barcode read proportion)” is about 0.14, and the lowest 2% start at about -0.84. The list shows a part of the results.

T1: TRAF2, Q12933
T1 chain: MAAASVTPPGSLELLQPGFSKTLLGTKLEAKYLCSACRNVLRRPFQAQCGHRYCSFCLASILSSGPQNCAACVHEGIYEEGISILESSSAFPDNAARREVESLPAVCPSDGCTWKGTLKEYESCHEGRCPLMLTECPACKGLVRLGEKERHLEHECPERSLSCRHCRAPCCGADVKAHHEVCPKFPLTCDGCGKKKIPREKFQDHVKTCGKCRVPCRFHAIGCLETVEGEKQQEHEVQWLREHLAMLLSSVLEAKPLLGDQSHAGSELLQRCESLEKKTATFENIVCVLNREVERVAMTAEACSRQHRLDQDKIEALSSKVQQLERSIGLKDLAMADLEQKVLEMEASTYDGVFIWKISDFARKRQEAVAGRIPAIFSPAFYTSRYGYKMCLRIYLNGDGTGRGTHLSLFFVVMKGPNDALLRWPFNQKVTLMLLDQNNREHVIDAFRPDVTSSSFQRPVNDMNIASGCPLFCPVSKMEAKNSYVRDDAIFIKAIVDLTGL

B1: traf2_out_15_48_1369 (protein)
chain: DAEAYRKAMNEAADAIIATKDAVAARVEALAATASPEVAAALDAVVALIRAGAGSQDVIAALNAAAATASPEVAAQLNALAADLKAARAAASKTAAEMAK
B2: traf2_out_13_95_1193 (protein)
chain: EEEKREKYKKLTNEIADELLDHADKLIDEITKATGDPALGAELRRVLDRYGVSAAIHYIREQAEKNPEYKELYLKAAEELEAKRREAGKKVAEKEKEIEA
B3: traf2_out_20_3_2242 (protein)
chain: SELEKQLKEEFEKLEKLIKELEPLLPKEDAEKIKKLLEEAKEAYKTDKSDALVKLSELKRLLLELAEKKRAAGDEETAKKLEEAADEVNRAMQLVYKIIQ
B4: traf2_out_1_27_987 (protein)
chain: SEEEFTALVKEASEKIAKASTEEAIKIAKETLREIHERGDPSIGLAAVTLVTSVKTKEDAEKLIEAIEETLRELGVSEEEIERIRRQMLTAVELLFKALA
B5: traf2_out_20_3_2187 (protein)
chain: SELEEELEKKLEEALKLIKEAAKLADPETAKELKELAKELKKSRELSYEDQLVKLSEIRRKLLELAEKAKAEGKEELAAKLEEAAEALNKAMNLVYKIIE
B6: traf2_out_18_117_1806 (protein)
chain: SEIEEARKEFEEALEEFEEELREAERVAGQLIERHPHALPEEATEAIVRFGELKRRARLLALEAEENRNNLEKLKEIVEELRRLTEEMREVRERLKELLA
B7: traf2_out_11_155_728 (protein)
chain: EAKRKAQNEIVDKNLEIGDELLAVVEAIIARVAARDPAVAAELRAVVARHLRFSHRSAARAAIDLLERRGLAEEAAELAAALEEAQRKASRFIKEVEEKL
B8: traf2_out_11_155_757 (protein)
chain: SKLREMANKINDIAMKIADEIDKKIEEMIKRIEKEDPAAAKKLRAALAAHKDASARSKALIAAQVLKEEGFEEEAEELLKFLEEKQKKLNEEVKKIEEEA
B9: traf2_out_5_63_2362 (protein)
chain: SERERLTELAREADRLVQELLAAAKAGDEEEVEALIEEAVADPELARLVLGILKGEAKYYKLLGDKPEEAAIAEELAKRLEAAMAAREAAAAAAAAAAAA
B10: traf2_out_17_178_1726 (protein)
chain: SKEEILKKISELADERLDVNKEAMEKLRAIAEKEGVLTPELKARLDAVSKNSNLYALEEVANELIARSSSKEEIQKLLDETSKKLRELNKKIQEAVEKLE
B11: traf2_out_9_166_2602 (protein)
chain: NTDKYYEVLKKHSRKIGEHAQAALRELERVGAPEELLAEVSEALNRLLTHMLYSDEVLEELERLAKRLAERPELREVARHLEEALEEAKKAREEVKKLNE
B12: traf2_out_20_3_2254 (protein)
chain: EELLRKAREELERARRLLEELEPHLDPETAAALREALEAAERALETDYSDALVEASRARRLALAAAEEARAAGREEVAARLEALADEMQRAKYYLYKIIE
B13: traf2_out_9_108_2595 (protein)
chain: MTEEEKEEETYEKILKLAKDFLERYDVSEELRADMEAAIEQAEKLRKEGEKRTANILIAISTARVAYEIGEEAVKDFLAELKKIDERSYNAAKRMVKLLK
B14: traf2_out_3_89_2281 (protein)
chain: EEERKKKIEEARKNIKTWIKGLEKSTKRVAEEMLKEGYSLETIKGLIDSSATALLEAFRISLKDEGFDEETIEELVKEAEEELKKIVAKLKEEAEKAYKE
B15: traf2_out_17_178_1703 (protein)
chain: SKEEARKEISEATDEMIDLAREAAARLLEIARREGDLSPEELAALERARRLGSARTTLALMDRAIPRLRSAAEVAALRDDFRARYAELAKKIAEALEKYE
B16: traf2_out_17_162_1496 (protein)
chain: AAAEARFAELQARLEELEKRLKELKAKLPNLPKMSKEELTDLLVEASELKREARELAEELRELAEETGSPEAEAALERAEALAEELQKIANEIYKELEAK
B17: traf2_out_6_156_2374 (protein)
chain: TAEEILREAEKEIKELIKELAKASEEKKIAYISRIAGAVYRALQRLREAGASVEELREAVERLREVAKKEAEKAGLPEDVKNLLLASINAVGEVALREAE
B18: traf2_out_8_144_2538 (protein)
chain: HMTKRELANELANILVELDELIELADEETKKVLIEARRHVGQALNLVVFGGPKEEILKEIEKAIEKLKEAIKLVKDNPELKKKLEEALEKLKEILKNVKE
B19: traf2_out_6_3_2530 (protein)
chain: SKESLRRDARTLLENMGITTAEQLLAFVRAEVNAVRKLVSRKDVDQADLAGARAVATLIEAVVEVAAEELPDFTPEQVAEALALIEEARKFIEEKEKELK
B20: traf2_out_16_177_1450 (protein)
chain: EREKISDRLVILSELRRAALLAVAGSGEEYREHLERAREEAEEAGDEEALERAEEIEALIAADTPEARAELEALARELQREAGKLANEFEKLIKEEAEKE
B21: traf2_out_6_156_2389 (protein)
chain: KLEEILKKTKEELEKLIEELSKASEEKKIFYFNKIAGVVYRALQQMRDAGASLEELKAFSEEVLEHAKKEADKYGLSEDTKNLLISSLNAVFDVALEAAK
B22: traf2_out_20_3_2196 (protein)
chain: SELEKQLKEELEKAIELLKEAAKLADEETAKKLEELIKRIKASESLSYSDRLVVLSEVRREVLKLAEEARAAGKEELAKVLEEAAEALNRAMNLLMKIIE
B23: traf2_out_6_156_2443 (protein)
chain: MLEEIKEKTEKEIKEEVKKLAESSPEKHIIHINKIAGAVYRGLLEARKAGASLEEIKEFVEELKKVLEEEANKYGLDESTKNLLLSSFNAVAQVALEEAK
B24: traf2_out_13_95_1125 (protein)
chain: SKELAEKIMEIADEMEEKVLKILEELLKIAKKKGIAEKEVQAILDFAKHGTINEVIHRLKELAEKYPELKEEFEAAIEKLEEIRREAGKKVAELIKEEEE
B25: traf2_out_17_162_1608 (protein)
chain: MELEEKLKKLKELLEELEKKLKRLEEKLKNIEKLSKEELSDLLVEASEARRKALEALEEIKKLKEKLDKEEYEKLSKRFEEIAEKFQRIANKFYKELEKK
B26: traf2_out_6_166_2464 (protein)
chain: EEELLEEIRRIAKELGKYPAEVVIEAFERVAAELTDESARLARQLASGVRQGQKAGLPVETVVTAYADGMIALGVPVERILELLRRVLERAKELAAEREA
B27: traf2_out_15_48_1371 (protein)
chain: SVEELHAAASKVADRFDEQIDKILKELEKLAKETKDPRVEELLKKAKEAAKKYGLTGVIHVMREALPELSPEVAAKVKELIAEAEKVRKEAGKEMAKVLK
B28: traf2_out_15_17_1305 (protein)
chain: KISPEDGRKLTDLAIKAKEEAKKLVEEVLKELEKKGLLTPEQRERLNFLINNPGISLHTIRDEVEKILKEVGEEELLKEAKEKLDALIKEVNDKANEMLK
B29: traf2_out_11_155_714 (protein)
chain: EEKLKLNQELVDEVSAIADEAEARLEALIAEVEAEDPAVAAELRAVLAAHADAGVTTKLLLAARVLEAAGRAEEAARVRAILAEYQKKANELYKEYEKKL

Biological target: T1, TRAF2, Q12933
Test: median log2 fold change of GCK-ALFA target abundance (FLAG IP / Myc IP barcode read proportion) (log2 ratio); each designed protein is fused to an ALFA-tag nanobody in HEK293 cells to bring the named protein to FLAG-tagged glucokinase (GCK); Myc marks an untargeted standard; higher = target protein stabilised (more abundant)
Conditions: target protein: 3xFLAG-MCP-GCK-ALFA reporter; HEK293 landing pad (RPLP)
Summary of the method: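 An ALFA-nanobody-fused binder library was recombined into HEK293 landing-pad cells and induced with 2 μg mL^−1 doxycycline. Cells were transfected with a plasmid expressing a FLAG-tagged target and a Myc-tagged standard. After 48 h, lysates underwent anti-FLAG and anti-Myc immunoprecipitation, and circular RNA barcodes were reverse transcribed, amplified and sequenced. Target abundance is the per-binder median log2 ratio of FLAG to Myc barcode read proportions. Barcodes needed ≥10^−7 proportion in both replicates, binders ≥3 barcodes per replicate, and a 10^−6 pseudocount was added; the two replicates were pooled.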

Row | Binder | median log2 fold change
1 | B1 | 0.341
2 | B2 | 0.187
3 | B3 | 0.299
4 | B4 | 0.203
5 | B5 | 0.101
6 | B6 | 0.144
7 | B7 | 0.215
8 | B8 | -0.0345
9 | B9 | -0.402
10 | B10 | 0.0326
11 | B11 | 0.0726
12 | B12 | 0.298
13 | B13 | -0.632
14 | B14 | -0.253
15 | B15 | -0.228
16 | B16 | 0.252
17 | B17 | -0.0257
18 | B18 | 0.112
19 | B19 | -0.811
20 | B20 | 0.121
21 | B21 | 0.203
22 | B22 | -0.0875
23 | B23 | 0.214
24 | B24 | -0.644
25 | B25 | -0.073
26 | B26 | 0.0466
27 | B27 | 0.233
28 | B28 | 0.373
29 | B29 | 0.256
